The values that follow come from article PMC6919601, “Identification of Plasmodium dipeptidyl aminopeptidase allosteric inhibitors by high throughput screening” (PLoS ONE, 2019).

Where “and” joins values, the source holds several entries; their conditions need not be identical. Equal entries are not always repeated. Out of some 110,000 compounds screened, about 230 (0.21%) showed an effect of 50% or more. The list shows a part of the results. Where a SMILES comes first, the peptide text is derived from it. The star is where a group is joined. Cbz = O=C(OCc1ccccc1)*
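Note: 30 min substrate incubation versus DMSO and 10 µM JCP410 controls.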

Sequence of DPAP1 (Q8IIJ9 whole entry, looked up): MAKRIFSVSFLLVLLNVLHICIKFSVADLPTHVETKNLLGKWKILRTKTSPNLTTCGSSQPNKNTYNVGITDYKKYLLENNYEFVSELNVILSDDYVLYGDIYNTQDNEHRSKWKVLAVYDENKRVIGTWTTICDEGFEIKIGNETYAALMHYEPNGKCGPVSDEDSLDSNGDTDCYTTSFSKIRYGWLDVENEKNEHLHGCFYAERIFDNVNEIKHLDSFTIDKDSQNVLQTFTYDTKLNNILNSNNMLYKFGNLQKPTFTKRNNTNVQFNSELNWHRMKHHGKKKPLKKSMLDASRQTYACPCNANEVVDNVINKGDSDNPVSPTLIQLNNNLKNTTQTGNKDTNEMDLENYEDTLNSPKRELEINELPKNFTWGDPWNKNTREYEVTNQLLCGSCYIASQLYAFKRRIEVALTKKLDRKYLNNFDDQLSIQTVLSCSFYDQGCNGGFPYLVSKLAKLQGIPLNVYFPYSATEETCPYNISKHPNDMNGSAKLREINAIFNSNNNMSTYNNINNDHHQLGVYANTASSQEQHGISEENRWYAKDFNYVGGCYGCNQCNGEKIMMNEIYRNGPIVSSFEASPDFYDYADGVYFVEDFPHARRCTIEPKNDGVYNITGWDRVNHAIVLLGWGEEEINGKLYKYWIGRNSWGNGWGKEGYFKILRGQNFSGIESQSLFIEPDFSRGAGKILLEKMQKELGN

The assay concerns the target DPAP1 (Plasmodium falciparum, UniProt Q8IIJ9). The experiment in a line: primary screen, percent inhibition; read by cleavage of a fluorogenic dipeptide substrate; higher = more effect of the substance. Set-up: species or system P. falciparum D10 trophozoite lysates; single well.
For the compound `O=c1c2c3n(c4cc(Cl)c([N+](=O)[O-])cc4c-2nn1-c1ccccc1)CCCCC3`, the “% Inhibition @ 10 uM” value was -1.86%.
Turning to `Cc1oc(-c2ccccc2F)nc1CSc1nc2cccnc2[nH]1`, the “% Inhibition @ 10 uM” value is listed as -0.878%.
The result for `Cc1cn(Cc2ccccc2)c(=O)[nH]c1=O` reads 3.61%.
The result for `C=CCOc1ccc(C(Nc2cccc(C)n2)c2ccc3ccc(C)nc3c2O)cc1` (centres unmarked) reads -2.65%; that for `O=C(Nc1ccc(Cl)cc1)Nc1cccc2c1C(=O)c1ccccc1C2=O`, 2.51%; that for `CN1CCCC(C(=O)c2ccccc2)C1` (centres unmarked), -2.42%.
The figure for `CC12c3ccccc3C(c3ccccc31)C1C(=O)N(c3ccc(Cl)cc3)C(=O)C12` (centres unmarked) is -1.59%; for `Cc1ccc(Cn2nc(C)c(NC(=O)c3cc(-c4ccco4)on3)c2C)cc1` it is 2.98%; for `O=S(=O)(c1ccc(-c2csc(Nc3ccc(F)cc3)n2)cc1)N1CCOCC1` it is 6.74%.
`CC1=CC2=NC(=O)/C(=C\c3ccc(O)c(Br)c3)C(=N)N2O1`: the “% Inhibition @ 10 uM” value is -3.23%.
`CCN1C(=O)S/C(=C/c2cc(Cl)c(OC)c(OC)c2)C1=O`: the “% Inhibition @ 10 uM” value is listed as -5.49%.
For `CCC(C(=O)NCc1cn2cccc(C)c2n1)c1ccccc1` (centres unmarked), the “% Inhibition @ 10 uM” value was -1.72%.
Consider `CC[C@@H](C)[C@H](NC(=O)c1cccc(CNC(=O)OC(C)(C)C)c1)C(=O)N[C@@H](CCc1ccccc1)C(=O)CO`, for which the “% Inhibition @ 10 uM” value came out at 1.61%.
The result for `COc1cc(C(C)=O)ccc1OCC(O)Cn1nc(C)c(Br)c1C` (centres unmarked) reads 0.755%; that for `CCCn1c2c(c(O)c(C(=O)Nc3ccc(C)cn3)c1=O)CCCC2`, 4.35%; that for `Cc1ccc(C)c(C(=O)C2=C(O)C(=O)N(CCCn3ccnc3)C2c2cccc(Cl)c2)c1` (centres unmarked), -0.132%.
As for `CCn1cc(C(=O)N2CCN(C)CC2)c2cc(OC)c(OC)cc2c1=O`, the “% Inhibition @ 10 uM” value is reported as -4.86%.
The figure for `CC1(C)CC(C)(c2ccc(O)cc2O)N(c2ccccc2)C(=S)N1` (centres unmarked) is -4.21%; for `CCn1c(C(=O)NC2CCCCC2C)cc2sc(Cl)cc21` (centres unmarked) it is -1.37%.
With `COc1ccc(C2CC(c3cccs3)=NN2C(=O)CCCC(=O)O)cc1OC` (centres unmarked), the “% Inhibition @ 10 uM” value turned out to be 4.67%.
With `O=C(c1ccccc1Cl)N1CCCCC1`, the “% Inhibition @ 10 uM” value was -5.65%.
With `CN(C)c1ccc(C2C(C(=O)c3ccc(Br)cc3)=C(O)C(=O)N2c2cccnc2)cc1` (centres unmarked), the “% Inhibition @ 10 uM” value is on record as -1.77%.
The result for `CN1CCCN(C2CC3CCC2C3)CC1` (centres unmarked) reads 2.1%; that for `CC1=CC(=C2C(=O)NC(=O)NC2=O)C=C(C(F)(F)F)N1CCc1ccccc1`, 25.7%; that for `COCc1cc(C)nc(SCCN(C)C)c1C#N`, -1.24%.
The figure for `C=CCC1(C#N)C(=S)N=C2CC(C)(C)CC(O)=C2C1c1ccc(Br)cc1` (centres unmarked) is 3.01%; for `CC1=C(C)CC(C(=O)Nc2ccc(C(C)C)cc2)C(C(=O)O)C1` (centres unmarked) it is 5.66%; for `O=C(NCC12CC3CC(CC(C3)C1)C2)c1cnn2c(C(F)(F)F)cc(-c3ccco3)nc12` it is -0.834%.
Turning to `O=C(Cn1c(=O)n(Cc2ccccc2)c(=O)c2c3c(sc21)CCC3)c1ccc(F)cc1`, the “% Inhibition @ 10 uM” value was -1.92%.
The figure for `Cc1c(Br)c(C(F)(F)F)nn1CC(=O)Nc1sc2c(c1C(N)=O)CCCCC2` is -0.171%; for `CC1=C(C(=O)OCCc2ccccc2)C(c2ccsc2)NC(=O)N1C` (centres unmarked) it is 11.9%; for `COc1cc(N2C(=O)c3ccccc3C2=O)c2ncccc2c1OC` it is 3.86%.
For `O=C(CCN1CCCCCC1)Nc1ccc(Cl)cc1`, the “% Inhibition @ 10 uM” value was -2.37%.
Turning to `COc1cccc(CN2CC3=C(C2=O)C(c2ccccc2)NC(=O)N3)c1` (centres unmarked), the “% Inhibition @ 10 uM” value was -1.97%.
The figure for `c1cc2c(cc1CCNC1CCCCCC1)OCO2` is -3.49%; for `N#CC(=C\c1[nH]c2ccccc2c1O)/C(N)=N/CCc1ccccc1` it is -3.06%; for `CC(C)CC(NC(=O)C1CCCN1C(=O)CNC(=O)OCc1ccccc1)C(=O)O` (stereo not drawn) (Cbz-Gly-Pro-Leu-OH; configuration not given here) it is 3.25%.
Regarding `Cc1ccccc1NC(=O)CSc1nc2ccccc2n1C`, the “% Inhibition @ 10 uM” value is -5.3%.
The figure for `CC(C)Oc1ccc(C2CC(=O)NC2=O)cc1` (centres unmarked) is 2.51%.
The figure for `Nc1nc2c(S(=O)(=O)c3cccc(Cl)c3)nnn2c2ccsc12` is -8.43%; for `Cc1cc(=O)n2nc(N3CCC(C(=O)NCc4cccc(Cl)c4)CC3)sc2n1` it is -5.63%; for `N#Cc1sc2nc(N)c(C#N)c(-c3ccccc3)c2c1N` it is -2.39%.
Turning to `FC(F)(F)c1cccc(Nc2nc3nonc3nc2Nc2ccc(Br)cc2)c1`, the “% Inhibition @ 10 uM” value is 4.54%.
For the compound `CCOC(=O)c1cnc2c(ccc3ccccc32)c1O`, the “% Inhibition @ 10 uM” value was -2.48%.
For `CC1CCC(N2CCN(C/C=C/c3ccccc3)CC2)C1` (centres unmarked), the “% Inhibition @ 10 uM” value is -3.8%.
On to `Oc1cc(Nc2ccc(Cl)c(Cl)c2)nc(O)n1`, for which the “% Inhibition @ 10 uM” value is -2.71%.
Regarding `CCCCCSc1nc2c(c(=O)[nH]c(=O)n2C)n1Cc1ccccc1`, the “% Inhibition @ 10 uM” value was 0.385%.
The figure for `CC(=O)Nc1ccc(CN2CCN(C)CC2)cc1` is -3.65%.
With `Cc1cc2sc3ccccc3c(=O)c2cc1O`, the “% Inhibition @ 10 uM” value amounted to 0.962%.
For `O=C1N/C(=C/c2cccs2)C(=O)N1Cc1ccc(F)cc1`, the “% Inhibition @ 10 uM” value is reported as 0.316%.
Take `CCN(CC)CCC/N=C/c1c(O)[nH]c2ccccc12`: the “% Inhibition @ 10 uM” value was 7.76% and 2.55%.
For `COc1ccc(-c2noc(/C=C/c3ccccc3Cl)n2)cc1OC`, the “% Inhibition @ 10 uM” value is reported as 0.331%.
`Cc1ccc(C(=O)CCC(=O)NC2=NCCS2)cc1`: the “% Inhibition @ 10 uM” value is -3.21%.
In the case of `O=C(NCCN1CCOCC1)C1CCN(c2nc3ccccc3n3cccc23)CC1`, the “% Inhibition @ 10 uM” value is -5.37%.
On to `Cc1c(Cl)cccc1NC(=O)/C=C/c1ccc2c(c1)OCO2`, for which the “% Inhibition @ 10 uM” value worked out at 5.06%.
The result for `Brc1ccccc1CN1CCN(Cc2ccccc2)CC1` reads -3.71%; that for `CC(C)N(C(=O)c1ccc(C(=O)N2CCCCC2)cc1)C(C)C`, -6.42%.
Take `COc1ccc2c(c1)CCc1c(C(=O)NC(C)c3ccccc3)noc1-2` (centres unmarked): the “% Inhibition @ 10 uM” value is given as -3.12%.
Consider `C#CCn1cnc2c(cnn2-c2ccc(Cl)cc2)c1=O`, for which the “% Inhibition @ 10 uM” value is on record as 1.63%.
The figure for `CC1CCCN(C(=O)Cn2ncc3c2-c2ccccc2OC3)C1` (centres unmarked) is -5.27%.
As for `O=C(COc1ccc(S(=O)(=O)NCc2ccccc2)cc1)Nc1ccc2c(c1)OCCO2`, the “% Inhibition @ 10 uM” value is listed as -0.536%.
The result for `CCC(C(=O)NCc1ccc2c(c1)OCO2)n1nc(C)c2c(C)n(-c3ccccc3)nc2c1=O` (centres unmarked) reads -6.33%; that for `Cc1nn(Cc2ccccc2)c(C)c1NC(=O)c1cc2n(n1)C(C(F)(F)F)CC(c1ccccc1)N2` (centres unmarked), 2.32%.
Regarding `COc1ccc(OC)c(N(CC(=O)Nc2ccccc2)S(=O)(=O)c2ccccc2)c1`, the “% Inhibition @ 10 uM” value is recorded as -6.62%.
The result for `O=C(CSc1cn(CC(=O)N2CCOCC2)c2ccccc12)NCc1ccco1` reads 1.66%; that for `CCc1ccc(-c2nc(CN3CCC(C(=O)NCc4ccccc4Cl)CC3)c(C)o2)cc1`, -6.64%.
Turning to `CCc1ccc(C2=NN(CCC(=O)NC3CCC(C)CC3)C(=O)CC2)cc1` (centres unmarked), the “% Inhibition @ 10 uM” value is recorded as -6.4%.
Regarding `CC(C)OCC(O)CSc1nc2ccccc2s1` (centres unmarked), the “% Inhibition @ 10 uM” value was found to be 3.35%.
As for `CC(C)NC(=O)CNC(=O)c1cccs1`, the “% Inhibition @ 10 uM” value was -4.97%.
`c1ccc(-c2cnc(-c3cccs3)o2)cc1`: the “% Inhibition @ 10 uM” value was -4.04%.
For the compound `NC1=NC(=O)C(Cc2cccc(Cl)c2)S1` (centres unmarked), the “% Inhibition @ 10 uM” value came to 1.43%.
For the compound `Cc1ccc2nc(N3CCN(Cc4ccccc4)CC3)c3nnnn3c2c1`, the “% Inhibition @ 10 uM” value is on record as -0.414%.
With `CCN1CCC(N2CCSCC2)CC1`, the “% Inhibition @ 10 uM” value was -1.5%.
In the case of `CCOC(=O)C1=C(C)N=C(C)/C(=C(/O)OCC)C1C(=O)O` (centres unmarked), the “% Inhibition @ 10 uM” value is -3.48%.
The result for `CCCC(=O)c1c(NCc2ccccc2)cc(C)oc1=O` reads 4.57%; that for `CCOC(=O)c1c(S(=O)(=O)N2CCN(Cc3ccccc3)CC2)c(C)n(C)c1C`, 7.23%; that for `CCOc1ccccc1-c1noc(-c2ccco2)n1`, -6.64%.
`COc1cccc(/C=C(\C#N)c2nc(-c3ccc(Cl)cc3)cs2)c1`: the “% Inhibition @ 10 uM” value was -2.6%.
Regarding `COc1cc(NC(=O)c2ccc(OC(C)C)cc2)ccc1NC(=O)C(C)C`, the “% Inhibition @ 10 uM” value was -8.59%.
With `CCCSc1nc(O)c2cnn(-c3ccc(C)c(C)c3)c2n1`, the “% Inhibition @ 10 uM” value was 1.9%.
In the case of `CN(C)c1ccc2c(c1)OC(N)=C(C#N)C2c1cccc2ccccc12` (centres unmarked), the “% Inhibition @ 10 uM” value is recorded as 6.06%.
As to `COc1cc(SC)ccc1C(=O)Nc1ccccc1`, the “% Inhibition @ 10 uM” value is given as -2.64%.
In the case of `O=C1CCCC/C1=C/Nc1cccc(C(F)(F)F)c1`, the “% Inhibition @ 10 uM” value worked out at 7.2%.
With `O=C(NCc1cccnc1)c1ccc(CSCc2ccccc2Cl)o1`, the “% Inhibition @ 10 uM” value was -0.0542%.
Regarding `Cc1ccc(N2C(=O)CC(N3CCc4ccccc4C3)C2=O)cc1Cl` (centres unmarked), the “% Inhibition @ 10 uM” value is given as -1.98%.
The result for `CCCNC(=O)CCc1nc(-c2cc(OC)c(OC)c(OC)c2)no1` reads 2.02%; that for `CC(C)NC(=O)C(C)(C)Oc1ccc(Cl)cc1`, -1.24%.
As for `CC(=O)N1CCC2(CC1)CC(=O)c1cc(OCC(=O)N3CCC4(CC3)OCCO4)ccc1O2`, the “% Inhibition @ 10 uM” value is given as -1.28%.
The figure for `Cc1nc(N2CCOCC2)c2c(C)c(C(=O)NCc3ccc(F)cc3)sc2n1` is 0.238%.
For the compound `Cc1nc2c(C)c(-c3ccccc3)nn2c(O)c1Cl`, the “% Inhibition @ 10 uM” value was 1.42%.
For `O=C(CCC1=Nc2ncc(Br)cc2S(=O)(=O)N1)NCc1ccccn1`, the “% Inhibition @ 10 uM” value is recorded as -8.56%.
On to `CCCn1c2ccccc2c2cnn(CC(=O)N3CCN(C)CC3)c(=O)c21`, for which the “% Inhibition @ 10 uM” value is recorded as 3.27%.
In the case of `CCn1c(=N)n(CCOc2ccccc2)c2ccccc21`, the “% Inhibition @ 10 uM” value is -1.59%.
Regarding `COC(C(=O)Nc1ccc(C)c(C)c1)c1ccccc1` (centres unmarked), the “% Inhibition @ 10 uM” value is reported as -2.97%.
Turning to `Cc1cccc(C(=O)Nc2ccc(C)c(F)c2)c1`, the “% Inhibition @ 10 uM” value is given as 2.13%.
`N#CCNC(=O)[C@H](CC1CCC(F)(F)CC1)NC(=O)c1ccccc1`: the “% Inhibition @ 10 uM” value is reported as -5.21%.
Turning to `CN1CCC(N2CCCC2CO)CC1` (centres unmarked), the “% Inhibition @ 10 uM” value is -1.75%.
Take `O/N=C(\Cc1ccccc1)c1c[nH]c2ccccc12`: the “% Inhibition @ 10 uM” value is recorded as -0.744%.
With `COc1cccc(S(=O)(=O)Nc2ccc(C(=O)Nc3ccc(Br)cc3F)cc2)c1`, the “% Inhibition @ 10 uM” value is listed as 1.84%.
The result for `CCOCCCNCc1c(C(=O)O)c(C)n(Cc2cc(C)ccc2C)c1C` reads -0.23%; that for `C=CCNC(=O)Cn1nc(-c2ccccc2)ccc1=O`, 0.514%.
